Measured values taken from article PMC12040169 (PLOS Biology, 2025).
Some of the results follow.

Each molecule was assayed on T1, C. trachomatis L2/434/Bu expressing GFP (CTL2-GFP). Conditions: total inclusion area; 28.5 h, 10 µM; inhibitor.
T1 construct: L2/434/Bu GFP intracellular growth in HeLa cells
Parameters: species or system HeLa; C. trachomatis total inclusion area by high-content imaging, normalised to DMSO
Procedure, shortened: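 Host cell viability was gauged from Hoechst-stained nuclei counts, while chlamydial growth was taken from total inclusion area and inclusion number per well. Cells were fixed and imaged by high-content microscopy once bulk GFP and resorufin fluorescence had been measured.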

SMILES	% of control remaining
COC(=O)c1ccccc1NC(=O)CSCc1ccc(Cl)cc1Cl [CBK131712]	59.159
COc1cc(OC)c(NC(=O)C(C)Oc2ccc(Br)cc2)cc1Cl (stereo not drawn) [CBK266791]	101.377
O=C1CCN(Cc2nc(-c3cccc(C(F)(F)F)c3)no2)CCN1 [CBK306368]	77.8587
O=S(=O)(c1ccc(F)c(Cl)c1)N1CCCN(Cc2ccccc2)CC1 [CBK045211]	83.9184
O=C(O)/C=C/C(=O)Nc1cccc(C(=O)O)c1 [CBK260988]	102.578
Cc1ccc(S(=O)(=O)N(CC(=O)NCC2CCCO2)c2cccc(C)c2C)cc1 (stereo not drawn) [CBK265339]	91.15
Brc1ccc2c(c1)[C@H]1C=CC[C@H]1[C@@H](c1ccccc1)N2 [CBK303238]	73.265
COc1ccc(-c2coc3c(C)c4oc(=O)c(CC(=O)O)c(C)c4cc23)cc1 [CBK269403]	67.5962
CCOC(=O)CCNC(=O)c1ccccc1-n1cccc1 [CBK149611]	75.2338
COc1cccc(CNC(=O)C2CCN(c3nc4c(-c5cccc(C)c5)csc4c(=O)[nH]3)CC2)c1 [CBK215603]	109.473
OCc1ccc(-c2nccnc2NCc2cccc(C(F)(F)F)c2)cc1 [CBK037076]	84.615
C[C@H](c1ccccc1)n1c(=O)[nH]c2ncc(-c3ccc(N(C)C)cc3)nc21 [CBK064367]	124.998
O=C(NC1CCN(CC2(c3ccccc3)CC2)CC1)c1ccco1 [CBK285321]	96.456
COC(=O)c1sccc1S(=O)(=O)N1CCN(c2ncnc3scc(C)c23)CC1 [CBK023600]	104.439
O=C(Cc1csc(-c2ccc(Cl)cc2)n1)N1CCN(c2ccccn2)CC1 [CBK107310]	80.6528
COc1cc(C2CC(=O)Nc3nc(N)[nH]c(=O)c32)ccc1OCc1ccc(F)cc1 (stereo not drawn) [CBK293980]	39.6301
COc1ccc(N(CC(=O)N2CCN(C)CC2)S(=O)(=O)c2ccc(C)c([N+](=O)[O-])c2)cc1 [CBK264051]	92.528
CC(=O)Nc1cccc(-n2cnnc2SCC2CCOCC2)c1 [CBK306354]	40.8591
Cc1c(C(C)NCC(C)(C)N(C)C)cnn1-c1ccc(C#N)cc1 (stereo not drawn) [CBK306447]	54.2377
COC(=O)[C@@H]1Cc2ncn(C(C)C)c2CN1C(=O)C1CCCCC1 [CBK288989]	117.381
N=C(N)SCc1ccc(CSC(=N)N)cc1 [CBK278309C]	106.475

SMILES	% of control remaining
CCC1(C)Cc2sc3[nH]c(=O)c(SCC(N)=O)nc3c2CO1 (stereo not drawn) [CBK020581]	43.0784
Cc1c(C)n(Cc2ccco2)c2ncnc(NCCCC(=O)O)c12 [CBK307562]	103.419
OC(COCc1ccco1)CN1CCc2sccc2C1C1CC1 (stereo not drawn) [CBK305167]	104.22
CCN(Cc1ccncc1)C(=O)NCCc1ccc(OC)cc1 [CBK155149]	107.543
CN(C)c1nc2n(c(=O)n1)CCS2 [CBK019025]	70.3238
CN(Cc1ccccc1N1CCCC1)C(=O)Cc1cn2ccsc2n1 [CBK305897]	57.0833
CC(=O)c1c[nH]c(=O)[nH]c1=O [CBK012093]	116.495
CCOC(=O)COc1ccc(S(=O)(=O)N2CCN(Cc3ccc4c(c3)OCO4)CC2)cc1 [CBK074492]	116.133
Cc1nc(-c2cc3c(s2)CCN(CC(O)COCc2ccco2)C3)cs1 (stereo not drawn) [CBK304460]	107.494
Cc1ccc2nc(NC(=O)c3cc(C)n(C)n3)sc2c1 [CBK287668]	97.9197
COc1ccc(-c2nnc(SCC(=O)Nc3cc(C)on3)n2C2CCCCC2)cc1 [CBK297510]	99.086
Cc1nn(CC(C)C)c(Cl)c1C(=O)Nc1nc2ccc(F)cc2s1 [CBK252188]	99.7063
CC(CCN1CCN(Cc2ccccc2)CC1)c1ccccc1 (stereo not drawn) [CBK261902]	92.4323
O=C(NCC1COc2ccccc2O1)c1ccc(-c2ccc(OC(F)(F)F)cc2)nc1 (stereo not drawn) [CBK156214]	96.1621
COc1cccc(-c2ccc(C(=O)NCc3ccccc3SC)c(N3CCN(C(=O)c4ccco4)CC3)n2)c1 [CBK106025]	98.1863
COc1cc(Br)c(OC)c(C(=O)N(C)Cc2cnn(C)c2)c1 [CBK244011]	40.6625
O=C(c1cncnc1)N1CCc2ccccc21 [CBK200272]	72.2584
O=C1CC(c2ccccc2F)C2=C(COC2=O)N1 (stereo not drawn) [CBK086692]	88.289
Cc1cc(S(=O)(=O)NCc2ccccc2-n2ccnc2)ccc1F [CBK281477]	109.054
CSCC[C@H](NC(=O)c1cccc2c1-c1ccccc1C2=O)C(=O)O [CBK286781]	48.0589
Fc1ccc2[nH]c3c(c2c1)CCNC31CCN(CCOc2ccccc2)C1 (stereo not drawn) [CBK085404T]	74.8664

SMILES	% of control remaining
CS(=O)(=O)N(Cc1ccc(Cl)cc1)c1ccc(C(=O)Nc2ccccc2C(=O)O)cc1 [CBK264093]	102.361
COc1ccc(-c2nccnc2NCCCN(C)C)cc1 [CBK037671]	82.5583
Fc1cccc(Nc2nc(C3CCNCC3)c3ccccn23)c1 [CBK281522]	99.6268
O=C(NNc1nc(-c2ccccc2)cc(-c2ccccc2)n1)Nc1ccccc1 [CBK262223]	76.1072
Cn1c(=O)c2c(ncn2CC(=O)Nc2cccc(Br)c2)n(C)c1=O [CBK133287]	87.2825
Cc1csc(C(Cc2ccsc2)NC(=O)C2CCOCC2)n1 (stereo not drawn) [CBK285047]	94.384
CC(C)(C)c1cc(N)c(C(N)=O)s1 [CBK016752]	54.0658
COc1cc2c(cc1OC)C1(CCN(CCc3c[nH]c4ccccc34)CC1)NC(=O)C2 [CBK039992]	109.249
Clc1cncc(NCCc2c[nH]c3ccccc23)n1 [CBK093514]	35.6202
COc1ccc(CN2C(=O)CS(=O)(=O)CC2=O)cc1OC [CBK011127]	95.4334
Fc1ccc(Br)cc1SCCc1ccccn1 [CBK262330G]	79.5366
O=C(O)C[C@@H]1CCN(C(=O)c2ccc3c(c2)OCO3)C[C@@H]1CC1=NCCc2ccccc21 [CBK289160]	92.3551
Cc1nc(NC(=O)c2ccoc2)sc1C [CBK296729]	106.453
O=C(O)c1ccc(CNCCc2c[nH]c3ccccc23)cc1 [CBK287265]	94.236
O=C1Nc2ccc(/C=C/c3ccccc3)cc2C(=O)N2CC[C@H](NC(=O)N3CCOCC3)[C@@H]12 [CBK289344]	82.6744
CCCCC1CCC(c2noc(-c3ccc(F)cc3)n2)CC1 (stereo not drawn) [CBK027363]	41.4387
COc1ccc([N+](=O)[O-])c(N2CCOC3(CCN(C(=O)OCc4ccccc4)CC3)C2)n1 [CBK161117T]	92.2978
CC(C)NC(=O)c1sc2ccccc2c1C1CN(Cc2ccc3ncccc3c2)CCO1 (stereo not drawn) [CBK285930]	98.2199
CC(C)(O)c1cc(CC2(NCc3ccc(Cl)cc3)COC2)no1 [CBK289254]	117.794
O=C(O)CC1C(=O)NCCN1Cc1cccc(C(F)(F)F)c1 (stereo not drawn) [CBK269958]	102.287
CC(=O)Nc1ccc(S(=O)(=O)N2CCN(CCO)CC2)cc1 [CBK262196]	108.942

SMILES	% of control remaining
Cc1noc(C)c1CC(=O)Nc1cccc(CN2CCCCCC2)c1 [CBK281407]	58.2929
Cc1cc(C)n2c(SCC(C)(C)NS(=O)(=O)c3ccccc3)nnc2n1 [CBK268369]	101.194
CCN(C(C)COC)S(=O)(=O)c1cccc(Cl)c1Cl (stereo not drawn) [CBK305146]	76.5011
COc1cccc(NC(=O)c2ccc(NC(=O)CCCC(=O)O)cc2)c1 [CBK287137]	88.9134
COc1ccccc1CCNC(=O)c1cnccn1 [CBK268147]	65.4885
O=C(O)CCNc1ccc(Br)cc1C(=O)O [CBK087259]	101.059
Cc1cc(-c2ccc(=O)n(CCNC(=O)C3CCCCC3)n2)c(C)o1 [CBK284522]	89.142
CCc1nnc(N/N=C/c2ccc(OCc3ccc(F)cc3Cl)c(OC)c2)n1N [CBK278173C]	98.3644
CCCn1cnc2cc(NC(=O)Cn3cc(C(=O)NC4CCCCC4)ccc3=O)ccc21 [CBK286098]	97.4929
Cc1c(C(=O)N(C)Cc2cccn2C)[nH]c2ccccc12 [CBK283270]	84.5644
CN(C)c1ccc(-c2ccnc3nc(N)ccc23)cc1 [CBK067640]	76.414
Cc1sc2[nH]c(CCC(=O)N3CCCC(C)CC3)nc(=O)c2c1C (stereo not drawn) [CBK305807]	38.7735
COc1ccc(C(=O)C2=C(O)C(=O)N(Cc3cccnc3)C2c2ccc(OC)cc2OC)c(C)c1 (stereo not drawn) [CBK264928]	104.897
COc1ccc2[nH]cc(CCNC(=O)[C@H](CC(C)C)NC(C)=O)c2c1 [CBK116210]	113.808
CCOC(=O)C1CCN(C(=O)c2cccnc2NCc2ccc3c(c2)OCO3)CC1 [CBK160106]	64.2021
CSc1nsc(SCC(=O)c2ccc3c(c2)OCCO3)n1 [CBK268904]	103.602
CC(=O)Nc1ccccc1/C=C/c1ccc2c(C)cc(C)c(O)c2n1 [CBK261937]	66.5026
O=C(N[C@@H](Cn1cc(F)c(=O)[nH]c1=O)C(=O)O)C1CCCCC1 [CBK289661]	101.837
